# Test results taken from publication PMC4336329 (PLoS ONE, 2015).
# Hit rate of the full screen: of about 310,000 compounds, about 14,000 (4.5%) showed an effect of 50% or more. Effects have a minus sign here. Some of the results follow.
# Target: human ether-à-go-go-related gene (hERG) potassium channel (human, UniProt Q12809)
# Experiment: primary screen, population patch clamp on CHO cells stably expressing hERG
# 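Further: peak tail current of the secondary pulse compared with the same well before compound.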
# Sequence of human ether-à-go-go-related gene (hERG) potassium channel (Q12809 whole entry, looked up): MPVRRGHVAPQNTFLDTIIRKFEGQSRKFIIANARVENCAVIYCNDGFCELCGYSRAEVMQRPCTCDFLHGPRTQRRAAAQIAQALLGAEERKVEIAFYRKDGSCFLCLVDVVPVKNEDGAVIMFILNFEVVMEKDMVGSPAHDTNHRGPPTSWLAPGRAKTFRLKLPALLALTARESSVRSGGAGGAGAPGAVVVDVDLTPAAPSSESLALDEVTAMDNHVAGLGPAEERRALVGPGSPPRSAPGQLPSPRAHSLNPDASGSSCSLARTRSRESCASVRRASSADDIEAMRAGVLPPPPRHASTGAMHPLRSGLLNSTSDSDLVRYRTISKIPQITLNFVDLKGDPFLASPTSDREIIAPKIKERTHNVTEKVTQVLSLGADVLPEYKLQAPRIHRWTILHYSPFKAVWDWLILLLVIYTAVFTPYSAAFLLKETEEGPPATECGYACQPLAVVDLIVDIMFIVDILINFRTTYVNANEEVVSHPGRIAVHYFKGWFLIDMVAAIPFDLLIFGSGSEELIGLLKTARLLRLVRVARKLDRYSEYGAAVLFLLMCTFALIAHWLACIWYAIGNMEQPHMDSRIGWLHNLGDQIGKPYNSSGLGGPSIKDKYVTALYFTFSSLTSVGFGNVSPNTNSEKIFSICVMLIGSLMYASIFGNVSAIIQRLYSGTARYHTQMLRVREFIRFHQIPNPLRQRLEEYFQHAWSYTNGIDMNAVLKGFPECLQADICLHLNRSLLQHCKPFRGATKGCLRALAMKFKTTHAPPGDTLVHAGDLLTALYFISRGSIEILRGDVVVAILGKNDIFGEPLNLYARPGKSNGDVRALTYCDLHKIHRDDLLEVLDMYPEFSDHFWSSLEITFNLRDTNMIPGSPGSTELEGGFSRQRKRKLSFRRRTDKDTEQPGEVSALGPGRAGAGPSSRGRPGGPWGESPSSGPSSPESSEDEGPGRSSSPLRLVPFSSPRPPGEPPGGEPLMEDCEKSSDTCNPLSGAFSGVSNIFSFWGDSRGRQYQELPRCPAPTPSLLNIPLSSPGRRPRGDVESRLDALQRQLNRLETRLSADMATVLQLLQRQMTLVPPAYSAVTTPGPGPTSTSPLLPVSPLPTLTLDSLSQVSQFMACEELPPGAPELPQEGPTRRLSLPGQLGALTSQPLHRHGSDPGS
row,SMILES,"hERG current change (%, negative = inhibition) at 10uM [%]"
1,CCc1ccc(S(=O)(=O)NC(=S)Nc2ccccc2)cc1,10
2,CCOC(=O)CN(Cc1sccc1C)C(=O)Nc1ccc(OC)cc1OC,11.9
3,Cc1ccc2cc3c(N)c(C(=O)N4CCOCC4)sc3nc2c1,-5.21
4,O=C(c1cccc(S(=O)(=O)N2CCc3ccccc3C2)c1)N1CCN(c2ccc(O)cc2)CC1,-22.1
5,O=C(Oc1ccccc1C(=O)N1CCOCC1)c1ccccc1,4.13
6,C#Cc1ccc([C@@H]2C=C(C(=O)N3CCN(Cc4ccccc4)CC3)O[C@H](OCC)[C@H]2CCCO)cc1,-17.2
7,c1ccc(Nc2ncnc3c2oc2ccccc23)cc1,2.86
8,O=[N+]([O-])c1ccc(N2CCOCC2)c2cccnc12,-25
9,Cc1ccc(N(CCC#N)C(=O)CCl)cc1C,13.6
10,COc1cc(/C=C/C(=O)O)cc2c1OCCO2,20.7
11,CCN(Cc1ccccc1)C(=O)c1cc(COc2c(F)cccc2F)on1,3.85
12,Cn1cc(/C=N\NC(=O)C2COc3ccccc3O2)c2ccccc21 (stereo not drawn),9.62
13,Cc1cccnc1NC(=O)Cn1nc(C)c([N+](=O)[O-])c1C,9.28
14,O=C(NCC(c1cccnc1)N1CCN(c2ccccc2)CC1)Oc1ccccc1 (stereo not drawn),-19.2
15,NS(=O)(=O)c1ccc(Nc2nc(-c3ccc(O)cc3O)cs2)cc1,-9.04
16,N#CCn1c(CCl)nc2ccccc2c1=O,23.6
17,CC(=O)OCCSc1c(-c2ccccc2)c2cc(Cl)ccc2[nH]c1=O,-4.37
18,CN(C)C(=S)NC(=O)c1cccc(Cl)c1,27.3
19,O=C(/C=C/c1ccccc1Cl)NC1CCS(=O)(=O)C1 (stereo not drawn),6.38
20,Cc1cc(-n2c(=S)sc3c(=O)n(-c4ccc(F)cc4)c(SCC(=O)O)nc32)ccc1Cl,28.8
21,Nc1ccccc1C(=O)NCc1ccccc1,7.95
22,CC(OC(=O)c1cnc2ccccc2n1)c1ccccc1Cl (stereo not drawn),3.11
23,CN1C(=O)C(=Cc2ccccc2OS(=O)(=O)c2ccccc2)C(=O)N(C)C1=O,8.72

row,SMILES,"hERG current change (%, negative = inhibition) at 10uM [%]"
1,O=C(Nc1csc(Cc2c(Cl)cccc2Cl)n1)NN1CCOCC1,0.272
2,O=C(Nc1cc([N+](=O)[O-])ccc1C(=O)Nc1cccnc1)c1ccccc1,1.51
3,CC(=O)Nc1cccc(NC(=O)CCCC(=O)O)c1,15.7
4,O=C(/C=C/c1cn(-c2ccccc2)nc1-c1ccccc1)Nc1ccc(C(=O)O)cc1,14.2
5,N=C1S/C(=C\c2cccc3ccccc23)C(=O)N1c1ccc(F)cc1,14
6,COc1ccc(C(NC(=O)C(C)(C)C)NC(=O)C(C)(C)C)cc1,13.6
7,CC(CC(=O)c1cccs1)CC(=O)c1cccs1,-4.16
8,COc1cc(SC)ccc1C(=O)Nc1cccc(S(=O)(=O)NC2=NCCC2)c1,-2.48
9,CCN(CC)S(=O)(=O)c1ccc(/C=C/C(=O)Nc2ccc(Br)cc2F)cc1,-6.08
10,CCOC(=O)c1[nH]c2ccc(F)cc2c1NC(=O)CN1CCN(C/C=C/c2ccccc2)CC1,-80.7
11,O=C(Nc1ccc(C(=O)N2CCOCC2)cc1)c1ccccc1[N+](=O)[O-],24
12,COCCNC(=O)COC(=O)c1cc(-c2ccc(OC)cc2)nc2ccccc12,6.35
13,Cc1cc(C)c(S(=O)(=O)Cc2ccccc2)c(=O)[nH]1,4.47
14,CN(C)C=Nc1ccc2nc3c(cc2c1)[nH]c1ccccc13,1.72
15,COC(=O)CNC(=O)COC(=O)/C=C/c1ccc2ccccc2n1,-7.5
16,COc1ccc(CN2C(=O)Cc3c2nc(N)c2c(N)nc(N4CCOCC4)c(C#N)c32)cc1,-36.8
17,CCOc1ccccc1CNS(=O)(=O)c1cc(-c2cc(C)no2)ccc1C,-19
18,COc1ccc(-c2nc(C#N)c(NC(C)C)o2)cc1,13.6
19,CC(C)(C)OC(=O)C1C(=O)CC(C)(O)C(C(=O)OC(C)(C)C)C1c1ccco1 (stereo not drawn),-9.35
20,CCN(c1ccccc1)S(=O)(=O)c1cc(C(=O)O)ccc1C,-5.27
21,Cc1nc(Cl)c2c(n1)NC1=C(O2)C(=O)CCC1,14.7
22,CSCCC1NC(=S)N(Cc2ccccc2)C1=O (stereo not drawn),16.3
23,CCOC(=O)c1sc(=NC(=O)COc2ccc(Cl)cc2)n(C)c1C,3.44

row,SMILES,"hERG current change (%, negative = inhibition) at 10uM [%]"
1,COc1ccccc1OCCSc1nnnn1C1CCCCC1,-17.8
2,CSc1n[nH]c(=O)n1-c1ccc(Cl)cc1,2.74
3,CC(C)OCCCNC(=O)c1cccc(NC(=O)c2ccccc2)c1,-5.08
4,O=C1OC(c2ccccc2)=N/C1=C/c1cccc(OC(=O)c2cccs2)c1,7.27
5,CN(C)c1ccc(/C=N/N=C2/SC(CC(=O)O)C(=O)N2c2ccc(O)cc2)cc1 (stereo not drawn),8.53
6,Oc1ccc(-n2nnnc2SCc2ccccc2Br)cc1,0.923
7,CC12CN3CC(C)(CN(C1)C3c1cccs1)C2O (stereo not drawn),-8.02
8,O=C(O)C1C2CC3CC(C2)CC1(n1ncc(N2CCC4(CC2)OCCO4)c(Cl)c1=O)C3 (stereo not drawn),0.177
9,Cc1cc(S(=O)(=O)Nc2ccc(C(=O)NCc3ccncc3)cc2)ccc1F,5.95
10,C=CCOC(=O)C1=C[C@@H](c2ccc3c(c2)OCO3)C[C@@H](OCCCCO)O1,-35.6
11,C=C(C)c1cccc(C(C)(C)NC(=O)N2CCCC2)c1,13.7
12,c1coc(Cn2c(SCc3nc4ccccc4[nH]3)nnc2-c2cnccn2)c1,-56.3
13,Cc1cc(C#N)c(SCC(N)=O)nc1-c1ccc(F)cc1,14.4
14,Cc1nc(C)c(C(=O)N/N=C/c2cc(Br)ccc2O)s1,-12.5
15,COc1ccc(-c2cc3c(=O)n(CC(=O)Nc4cccc(Cl)c4)nc(C)n3n2)cc1,14.8
16,CSc1ccc(/C=C/C(=O)c2ccc(O)cc2)cc1,-2.65
17,CCCN1C(=O)COc2ccc(C(=O)c3ccccc3C(=O)O)cc21,17.7
18,CNc1ccccc1C(C)(C)c1cc(-c2cccc([N+](=O)[O-])c2)no1,8.04
19,COc1ccc(OCC(=O)NS(=O)(=O)c2ccc(Cl)cc2)cc1,22.6
20,CCCCCC(=O)N/N=C/c1ccc(N(C)C)cc1,-19.2
21,Cc1ccccc1NC(=O)CN1CCN(Cc2ccccc2)CC1,-36.1
22,O=C(CSc1nc2c(cnn2-c2ccc(F)cc2)c(=O)[nH]1)Nc1nccs1,4.54
23,CN1C(=O)CC(N2CCC(C(N)=O)CC2)C1=O (stereo not drawn),4.5

row,SMILES,"hERG current change (%, negative = inhibition) at 10uM [%]"
1,COc1ccc(-c2nnnn2C)cc1S(=O)(=O)NCCc1ccccc1,-2.23
2,CC(C)N(C(=O)CN1C(=O)C(=O)c2ccccc21)c1ccccc1,3.08
3,Cc1cccc(/C=c2\s/c(=C\C(=O)C(C)(C)C)[nH]c2=O)c1,13.2
4,Oc1ccc2ccc3[nH]cnc3c2c1,6.36
5,O=C(COC(=O)/C=C/c1cccc(C(F)(F)F)c1)Nc1cccc2ccccc12,2.84
6,CCN(CC)CCN(C(=O)c1ccc(S(=O)(=O)N(C)C2CCCCC2)cc1)c1nc2c(C)cccc2s1.Cl,-13.9
7,CCC1NC(=O)c2ccccc2N1c1cccc(Cl)c1 (stereo not drawn),-12.6
8,CCOc1ccccc1N=Cc1c(O)c2ccccc2oc1=O,15.4
9,COc1cc(/C=C(\C#N)C(=O)Nc2ccc3ccccc3c2)c([N+](=O)[O-])cc1OC,8.14
10,COC(=O)CCCC(NC(=S)N1CC2C[C@@H](C1)Cn1c2cccc1=O)C(=O)OC (stereo partly drawn),8.56
11,CCN(CC)CC(C)OC(=O)c1ccccc1Cl (stereo not drawn),20.6
12,O=C1Nc2ccccc2Oc2cc([N+](=O)[O-])cc(Oc3ccccc3)c21,-24.5
13,Cc1ccc(C)c(N2CCN(c3ncccc3[N+](=O)[O-])CC2)c1,2.42
14,O=C(N/N=C/c1ccc(OC(=O)c2ccccc2Cl)cc1)c1ccccn1,4.78
15,Cc1ccc(Cn2c(CN3CCOCC3)nc3c2c(=O)[nH]c(=O)n3C)cc1,-21
16,Cc1cc(C)n(CC(C)NC(=O)c2cc(COc3c(F)cccc3F)on2)n1 (stereo not drawn),1.49
17,CCOC(=O)c1ccc(COC(=O)c2ccc3c(c2)-c2ccccc2C3=O)cc1,7.04
18,Nc1ncc([N+](=O)[O-])s1,19.6
19,CC1CCC2(CC1)NC(=O)N(CC(=O)Nc1cccc(S(=O)(=O)N3CCOCC3)c1)C2=O (stereo not drawn),1.07
20,CCN(CC)C(=O)Cn1cc(SCC(=O)Nc2cc(C)on2)c2ccccc21,-0.579
21,CCc1ccc(OCC(=O)Nc2ccc3c(c2)COC3=O)cc1,-14.2
